Measured values taken from PubChem BioAssay AID360 (National Center for Advancing Translational Sciences (NCATS), 2006).
Among all 48,000 compounds or so, about 550 (1.1%) were called active. Not shown: some 4% with an inconclusive outcome. Cut-off read from the data, not from the text of the source: active = potency below about 15 µM; inconclusive = mostly about 16 µM to 33 µM; inactive = weaker than that. Some of the results follow.
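Note: the screen sought inhibitors.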
Potency is the fitted concentration of half-maximal effect.

Each compound was assayed against Lysosomal acid glucosylceramidase (Homo sapiens) (UniProt P04062) (assay: Glucocerebrosidase). Conditions: purified enzyme, resorufin glucoside fluorescence (screen aimed at inhibitors), 20 min.
Chain of UniProt P04062 (P04062 whole entry, looked up): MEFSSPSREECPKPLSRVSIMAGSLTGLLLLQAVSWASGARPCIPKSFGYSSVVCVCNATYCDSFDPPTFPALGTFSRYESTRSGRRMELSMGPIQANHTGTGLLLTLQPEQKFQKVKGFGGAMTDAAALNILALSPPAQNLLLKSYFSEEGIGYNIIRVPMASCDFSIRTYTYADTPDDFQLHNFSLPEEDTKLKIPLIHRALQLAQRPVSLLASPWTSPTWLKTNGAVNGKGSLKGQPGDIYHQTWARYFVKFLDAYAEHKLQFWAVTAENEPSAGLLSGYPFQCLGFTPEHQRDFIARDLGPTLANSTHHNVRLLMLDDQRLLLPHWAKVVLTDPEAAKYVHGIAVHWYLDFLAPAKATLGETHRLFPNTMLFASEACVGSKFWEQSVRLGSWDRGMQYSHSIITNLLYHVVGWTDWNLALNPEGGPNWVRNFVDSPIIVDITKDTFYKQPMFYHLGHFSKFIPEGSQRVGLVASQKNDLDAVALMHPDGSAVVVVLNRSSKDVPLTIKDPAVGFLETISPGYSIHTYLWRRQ
In short: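 Wild-type enzyme at 0.2 nM final in 50mM citric acid/KH2PO4, 10mM sodium taurocholate, 0.01% tween-20, pH 5.9, with resorufin beta-D-glucopyranoside at 30 uM final. Compounds titrated, 20 min at RT, red fluorescence read; AC50 from titration.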
`COc1ccc(C)cc1NC(=O)c1ccc(N(C)S(C)(=O)=O)cc1` was tested, and the Potency was inactive: > 76.9 µM.
With `CC(=O)C1C(c2cccc(F)c2)NC(=O)NC1(O)C(F)(F)F` (centres undefined) the Potency was inactive: > 76.9 µM.
For `CCOC(=O)c1sc(NC(=O)c2ccc(CC)s2)nc1C`, the Potency was inactive: > 76.9 µM.
With `CCC(CC)C(=O)NCCNC(=O)C(CC)CC` the Potency was inactive: > 76.9 µM.
For `COc1ccccc1NC(=O)CSc1nnc(-c2ccncc2)n1CC1CCCO1` (centres undefined), the Potency was inactive: > 76.9 µM.
With `COC(=O)c1ccccc1NC(=O)COc1ccc(S(=O)(=O)N2CCCC2)cc1C` the Potency was inactive: > 76.9 µM.
`Cc1ccc(S(=O)(=O)C2(C(=O)N3CCCC(C)C3)CC2)cc1` (centres undefined) was tested, and the Potency was inactive: > 76.9 µM.
For `COc1ccc(Cl)cc1-c1nc(-c2ccncc2)no1`, the Potency was inactive: > 76.9 µM.
With `CCCCCn1c(CN2CCN(C(=O)OCC)CC2)nc2c1c(=O)[nH]c(=O)n2C` the Potency was inactive: > 76.9 µM.
In the case of `Cc1nnc(SCc2ccc(CC(=O)O)cc2)o1`, the Potency is reported as inactive: > 76.9 µM.
In the case of `O=C1CCN(Cc2nnnn2CC2CCCO2)c2ccccc2N1` (centres undefined), the Potency is reported as inactive: > 76.9 µM.
With `Cc1ccc(Cl)cc1N1CCN(C(=O)c2cn(C)c(=O)c3c2c2ccccc2n3C)CC1` the Potency was inactive: > 76.9 µM.
With `O=C(Cn1c(NCCCO)nc2ccccc21)c1ccc(Br)cc1` the Potency was inactive: > 76.9 µM.
With `CCOc1nc(C)ccc1-c1noc(-c2ccncc2)n1` the Potency was inactive: > 76.9 µM.
In the case of `Cn1c(CN2CCCC2)nc2cc(NC(=O)c3ccco3)ccc21`, the Potency is reported as inactive: > 76.9 µM.
In the case of `COc1ccc(N2CCn3c2nc2c3c(=O)n(CCN3CCOCC3)c(=O)n2C)cc1`, the Potency is reported as inactive: > 76.9 µM.
For `CCOC(=O)N1CCN(C(=O)CCSc2ccc(C)cc2)CC1`, the Potency was inactive: > 76.9 µM.
For `CC(=O)Nc1ccc(S(=O)(=O)Nc2nc3ccccc3nc2Sc2nncn2C)cc1`, the Potency was inactive: > 76.9 µM.
For `O=C(CN1CCN(Cc2ccccc2)CC1)N1CCCc2c1c(=O)oc1ccc(O)cc21`, the Potency was active: 14.2 µM.
`Fc1cccc(Cl)c1CSc1nnc(COc2cccc3cccnc23)o1` was tested, and the Potency was inactive: > 76.9 µM.
For `Brc1c(CSc2nc3ccccc3o2)nc2ncccn12`, the Potency was inactive: > 76.9 µM.
`CCOc1ccc(NS(=O)(=O)c2ccc(SC)cc2)cc1` was tested, and the Potency was “inactive”.
`Cc1ccccc1C(=O)Nc1c(C(=O)N2CCCC2)cnn1-c1ccccc1` was tested, and the Potency was inactive: > 76.9 µM.
In the case of `O=C(NCc1nnc(SCC(=O)N2CCCC2)o1)c1c(F)cccc1Cl`, the Potency is reported as inactive: > 76.9 µM.
`COc1ccc(-c2nn(C)c(=O)c3ccccc23)cc1NC(=O)Cn1nc(C)c2ccccc2c1=O` was tested, and the Potency was inactive: > 76.9 µM.
`Cc1ccc(C(=O)NC2CCCCCC2)cc1N1CCCC1=O` was tested, and the Potency was inactive: > 76.9 µM.
In the case of `CC(C)(C)OC(=O)N1CCC(c2c(C(=O)O)cnn2-c2ccccc2)CC1`, the Potency is reported as inactive: > 76.9 µM.
In the case of `CCOCc1nc(C)c(Cl)c(NS(=O)(=O)c2ccc(N)cc2)n1`, the Potency is reported as inactive: > 76.9 µM.
For `CCOCCn1c(CCCO)nc2ccccc21`, the Potency was inactive: > 76.9 µM.
In the case of `Cc1oc(-c2ccccc2F)nc1CS(=O)(=O)CC(=O)NCCCN(C)C1CCCCC1`, the Potency is reported as inactive: > 76.9 µM.
For `Cn1ccnc1C(O)(c1nnc(-c2ccccc2)o1)C(F)(F)F` (centres undefined), the Potency was inactive: > 76.9 µM.
With `CCCC(c1nnnn1Cc1ccc(OC)cc1)N1CCC(C(N)=O)CC1` (centres undefined) the Potency was inactive: > 76.9 µM.
With `COCC(=O)NC(C)c1nc2ccccc2[nH]1` (centres undefined) the Potency was inactive: > 76.9 µM.
In the case of `COc1ccc(N2CCN(/C(=N\S(=O)(=O)c3ccccc3)Nc3nc(C)cc(C)n3)CC2)cc1`, the Potency is reported as inactive: > 76.9 µM.
In the case of `O=C(c1ncc[nH]1)c1ccco1`, the Potency is reported as inactive: > 76.9 µM.
With `COc1ccc(C2CC(c3ccccc3)n3nc(NC(=O)c4cccs4)nc3N2)cc1` (centres undefined) the Potency was inactive: > 76.9 µM.
In the case of `CCOC(=O)c1cc(C)sc1N1C(=O)C2C3C=CC(C3)C2C1=O` (centres undefined), the Potency is reported as inactive: > 76.9 µM.
`CCC(=O)c1ccc(OCC(O)CN2CC(C)OC(C)C2)cc1` (centres undefined) was tested, and the Potency was inactive: > 76.9 µM.
For `O=C(Nc1ccccc1)c1ccc(NCC2CCCO2)c(S(=O)(=O)N2CCOCC2)c1` (centres undefined), the Potency was inactive: > 76.9 µM.
`CS(=O)(=O)N1Cc2ccccc2CC1C(=O)Nc1ccccc1C(N)=O` (centres undefined) was tested, and the Potency was inactive: > 76.9 µM.
`CCOc1cccc2cc(C(=O)Nc3cc(C)on3)c(=O)oc12` was tested, and the Potency was inactive: > 76.9 µM.
In the case of `N#Cc1c(-c2ccccc2)nc(SCc2nc(N)nc(N3CCCCC3)n2)[nH]c1=O`, the Potency is reported as inactive: > 76.9 µM.
With `CN1Cc2sc(N)c(C#N)c2CC1(C)C` the Potency was inactive: > 76.9 µM.
`CCCS(=O)(=O)NCCc1cc2ccc(C)cc2[nH]c1=O` was tested, and the Potency was inactive: > 76.9 µM.
`COc1ccc(CCCC(=O)O)c(C)c1` was tested, and the Potency was inactive: > 76.9 µM.
For `COc1ccc(CN2CCCCCC2)c(C)c1C`, the Potency was inactive: > 76.9 µM.
In the case of `COc1ccc(Cc2noc(-c3ccc(OC)c(OC)c3)n2)cc1OC`, the Potency is reported as inactive: > 76.9 µM.
For `CCc1ccc2oc(-c3cc(N)ccc3Cl)nc2c1`, the Potency was inactive: > 76.9 µM.
`COc1ccc(OC)c(S(=O)(=O)NCCc2ccccc2)c1` was tested, and the Potency was inactive: > 76.9 µM.
With `COc1ccccc1-c1cn[nH]c(=S)n1` the Potency was inactive: > 76.9 µM.
In the case of `C=CCN(C(=O)CNC(=O)c1ccco1)C(C(=O)NC1CCCCC1)c1ccc(OC)cc1OC` (centres undefined), the Potency is reported as inactive: > 76.9 µM.
`O=S(=O)(NCc1cccnc1)c1ccc(Br)s1` was tested, and the Potency was inactive: > 76.9 µM.
`CC(=O)Nc1ccc(S(=O)(=O)N2CCSC2c2ccc(Cl)cc2)cc1` (centres undefined) was tested, and the Potency was “inactive”.
`C=CCn1c(SCC(=O)NCCOC)nc2scc(-c3ccco3)c2c1=O` was tested, and the Potency was inactive: > 76.9 µM.
`Cc1cc(C)c2c3c(sc2n1)C(=O)N(C)CC(=O)N3` was tested, and the Potency was inactive: > 76.9 µM.
With `O=C(CN(Cc1ccccc1)C(=O)c1ccc2c(c1)OCCO2)NCc1ccc2c(c1)OCO2` the Potency was inactive: > 76.9 µM.
`Cc1ccc(-c2nc(Nc3ccccc3)n[nH]2)cc1` was tested, and the Potency was inactive: > 76.9 µM.
For `COc1cc(CO)cc(Br)c1OCc1cccnc1`, the Potency was inactive: > 76.9 µM.
In the case of `Cc1cc(C)cc(OCC(=O)Nc2ccccc2C(=O)NCc2ccco2)c1`, the Potency is reported as inactive: > 76.9 µM.
In the case of `COc1ccccc1OCCCn1c(=O)oc2ccccc21`, the Potency is reported as inactive: > 76.9 µM.
`Cc1ccc(-c2noc(CCC(=O)Nc3ccccc3C)n2)cc1` was tested, and the Potency was inactive: > 76.9 µM.
With `Cc1cc(N2CCN(C(=O)c3ccco3)CC2)n2ncc(-c3ccccc3)c2n1` the Potency was “inactive”.
`CN(C(=O)C1CCCO1)c1nnc(-c2cnccn2)s1` (centres undefined) was tested, and the Potency was inactive: > 76.9 µM.
For `CC(C)c1ccc(NC(=O)C(c2ccc3c(c2)OCO3)N2CCC3(CC2)OCCO3)cc1` (centres undefined), the Potency was “inactive”.
With `CN(Cc1ccccc1)c1oc(-c2ccco2)nc1C#N` the Potency was inactive: > 76.9 µM.
`c1ccc(C2C3=C(CCCC3)Nc3ncnn32)cc1` (centres undefined) was tested, and the Potency was inactive: > 76.9 µM.
With `CC1CC(C)CN(c2nc3c(c(=O)n(C)c(=O)n3C)n2C)C1` (centres undefined) the Potency was inactive: > 76.9 µM.
With `Cc1ccc(NC(=O)CNc2cccc(C)c2C)c(C)c1` the Potency was inactive: > 76.9 µM.
In the case of `CCN(CC)c1nc2ccccc2nc1C(C#N)C(=O)NCCCOC` (centres undefined), the Potency is reported as inactive: > 76.9 µM.
For `CCCCc1nccn1CCn1ccnc1CCCC`, the Potency was inactive: > 76.9 µM.
`Cc1nc2c(C(=O)NCc3ccco3)cnn2c(C)c1Cc1ccc(F)cc1Cl` was tested, and the Potency was inactive: > 76.9 µM.
With `c1ccc(-n2ncc3c(N4CCN(c5ccccn5)CC4)nc(N4CCCCCC4)nc32)cc1` the Potency was inactive: > 76.9 µM.
For `Cc1cccc(Cc2c(C)nc3c(C(=O)NCc4ccco4)cnn3c2C)c1`, the Potency was “inactive”.
With `COc1cc(NS(=O)(=O)c2ccc(F)cc2)c(OC)cc1NC(=O)C1CC1` the Potency was inactive: > 76.9 µM.
For `CCOC(=O)C1=C(N)N(c2ccccc2Oc2ccccc2)C(=O)C1`, the Potency was inactive: > 76.9 µM.
`O=C(O)c1cccn1Cc1ccccc1F` was tested, and the Potency was inactive: > 76.9 µM.
In the case of `COC(=O)[C@H](Cc1ccccc1)NC(=O)N1CC(C)OC(C)C1` (some centres undefined), the Potency is reported as inactive: > 76.9 µM.
For `CC1CN(C(=O)CCn2c(=O)oc3ccccc32)CC(C)O1` (centres undefined), the Potency was inactive: > 76.9 µM.
In the case of `N#Cc1cc2c(=O)n3ccccc3nc2n(Cc2cccnc2)c1=N`, the Potency is reported as inactive: > 76.9 µM.
With `Cn1nnnc1SCCNC/C=C/c1ccccc1` the Potency was inactive: > 76.9 µM.
For `O=C(COC(=O)C12CC3CC(CC(O)(C3)C1)C2)Nc1ccccc1OC(F)F`, the Potency was inactive: > 76.9 µM.
With `COc1ccc(CCNc2nnc(Sc3nnnn3-c3ccccc3)s2)cc1OC` the Potency was inactive: > 76.9 µM.
For `Cc1ccc(NC(=O)C(C)N2C(=O)c3ccccc3C2=O)cc1` (centres undefined), the Potency was inactive: > 76.9 µM.
In the case of `Cc1ccc(C)c(CSc2nnc(-c3cccnc3)o2)c1`, the Potency is reported as inactive: > 76.9 µM.
In the case of `O=C(Cc1c[nH]c2ccccc12)N1CCc2ccccc21`, the Potency is reported as inactive: > 76.9 µM.
With `O=C(NCCCCCNC(=O)c1ccco1)c1ccco1` the Potency was inactive: > 76.9 µM.
With `Nn1cnn(Cc2ccccc2)c1=S` the Potency was inactive: > 76.9 µM.
For `O=S(=O)(Nc1nc(CN2CCOCC2)nc2sc3c(c12)CCCC3)c1cc(F)ccc1F`, the Potency was inactive: > 15.4 µM.
With `Cc1ccc(-c2cn3cccnc3n2)cc1NC(=O)c1ccc(Br)o1` the Potency was “inactive”.
For `CCCn1nnc(NC(=O)c2sc3ccccc3c2Cl)n1`, the Potency was inactive: > 76.9 µM.
For `O=C(NCCCCNC(=O)C1CCCC1)C1CCCC1`, the Potency was inactive: > 76.9 µM.
With `C=CCNC(=O)NC(=O)COC(=O)CCCSc1nc2ccccc2[nH]1` the Potency was inactive: > 76.9 µM.
For `Cc1cccc(-n2nnc(C(=O)NCc3ccccn3)c2N)c1`, the Potency was inactive: > 76.9 µM.
`CCOC(=O)c1c(C)[nH]c(C)c1C(=O)CSc1nnc(-c2cc(OC)c(OC)c(OC)c2)o1` was tested, and the Potency was inactive: > 76.9 µM.
